Drawing on the supplement of paper PMC9446081, this text covers relative growth for 60 compounds.

The campaign covered roughly 39,000 compounds. About 220 (0.56%) showed activity. The list shows a part of the results.
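Note: static incubation at 37 °C against the wild-type strain, values averaged over two biological replicates.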

The experiment deals with Escherichia coli K-12 BW25113. Briefly: relative growth (OD600 normalised to plate interquartile mean) (fraction); higher = less growth inhibition, active = 0.2 or less. Particulars: 50 µM; LB; incubation time: overnight (16-24 h).
On to `C[C@@H]1CN([C@H](C)CO)C(=O)c2cc(NS(=O)(=O)c3ccc(Cl)cc3)ccc2O[C@@H](C)CCCCO[C@@H]1CN(C)S(=O)(=O)c1ccc(F)cc1`, for which the relative growth was inactive: 1.02.
The result for `CC(C)NC(=O)Nc1ccc2c(c1)C(=O)N([C@H](C)CO)C[C@@H](C)[C@H](CN(C)S(=O)(=O)c1cn(C)cn1)OCCCC[C@H](C)O2` reads inactive: 0.962; that for `C/C=C1\[C@H](O[C@@H]2O[C@H](CO)[C@@H](O)[C@H](O)[C@H]2O)OC=C(C(=O)OC)[C@H]1CC(=O)OC[C@H]1O[C@@H](OCCc2ccc(O)cc2)[C@H](O)[C@@H](O)[C@@H]1OC(=O)C[C@@H]1C(C(=O)OC)=CO[C@@H](O[C@@H]2O[C@H](CO)[C@@H](O)[C@H](O)[C@H]2O)/C1=C\C`, inactive: 1.03; that for `CNC[C@@H]1OCCCC[C@H](C)Oc2ccc(NC(=O)Nc3cccc4ccccc34)cc2C(=O)N([C@@H](C)CO)C[C@@H]1C`, inactive: 0.995.
The value for `C[C@@H]1CN([C@H](C)CO)S(=O)(=O)c2ccc(C3=CCCC3)cc2O[C@H]1CN(C)S(=O)(=O)c1ccc(F)cc1` was inactive: 1.04; that for `O=C(C[C@H]1CC[C@@H]2[C@H](COC[C@H](O)CN2S(=O)(=O)c2ccccc2)O1)NCc1ccc(-c2ccccc2)cc1` was inactive: 0.994; that for `CC(C)NC(=O)N(C)C[C@H]1Oc2ccc(NC(=O)C3CCCCC3)cc2C(=O)N([C@@H](C)CO)C[C@H]1C` was inactive: 0.982.
The value for `COc1ccc([C@H]([C@@H](O)Cc2ccccc2)N(C[C@H](/C=C/c2ccccc2)CC(=O)N(C)C)[C@@H](Cc2ccccc2)C(OC)OC)cc1` was inactive: 0.898.
On to `C[C@@H](O)C#Cc1cnc2c(c1)C(=O)N([C@@H](C)CO)C[C@H](C)[C@H](CN(C)C(=O)CN1CCOCC1)O2`, for which the relative growth was inactive: 1.
The value for `C[C@@H]1CN([C@@H](C)CO)C(=O)c2cc(NC(=O)Cn3cnnn3)ccc2O[C@@H]1CN(C)Cc1ccc(Oc2ccccc2)cc1` was inactive: 0.996.
`C[C@H]1CC(=O)Nc2c1c(N)nn2C`: the relative growth is inactive: 1.02.
The value for `O=C(C[C@H]1C=C[C@H](NC(=O)Nc2ccc3c(c2)OCO3)[C@H](CO)O1)NCCCN1CCOCC1` was inactive: 0.987; that for `C[C@@H]1CCCCO[C@H](CN(C)C(=O)Cc2ccccc2)[C@@H](C)CN([C@@H](C)CO)C(=O)c2cc(NC(=O)NC3CCCCC3)ccc2O1` was inactive: 1.03.
The result for `NCc1ccc(-c2ncccn2)cc1` reads inactive: 0.989; that for `C[C@@H]1CN([C@H](C)CO)C(=O)c2cc(NS(=O)(=O)c3ccc(F)cc3)ccc2O[C@@H](C)CCCCO[C@H]1CN(C)C(=O)Nc1ccc(F)cc1`, inactive: 1.02.
On to `COc1ccc2c3c([nH]c2c1)[C@H](CO)N(C[C@]13CCN(CC1)CC1CCCC1)S(=O)(=O)c1cn(cn1)C`, for which the relative growth is inactive: 0.985.
With `CC(C)NC(=O)Nc1ccc2c(c1)C(=O)N([C@H](C)CO)C[C@@H](C)[C@@H](CN(C)Cc1ccc(Oc3ccccc3)cc1)O2`, the relative growth is inactive: 0.946.
The value for `Cc1noc(C)c1S(=O)(=O)N(C)C[C@H]1Oc2ccc(NC(=O)CCN3CCOCC3)cc2C(=O)N([C@@H](C)CO)C[C@H]1C` was inactive: 1; that for `CN1C[C@H](C#N)CC1=O` was inactive: 0.983.
The value for `O=C(C[C@@H]1CC[C@H]2[C@@H](COC[C@@H](O)CN2S(=O)(=O)c2cccc(Cl)c2)O1)N1CCOCC1` was inactive: 0.992.
In the case of `COc1ccc(CN(C)C[C@H]2Oc3ccc(NC(=O)C4CC4)cc3CC(=O)N([C@H](C)CO)C[C@@H]2C)cc1`, the relative growth was inactive: 0.987.
In the case of `C[C@@H]1CN([C@@H](C)CO)C(=O)c2cc(NC(=O)CCC(F)(F)F)ccc2O[C@@H](C)CCCCO[C@H]1CN(C)C(=O)c1ccccc1`, the relative growth was inactive: 0.999.
The value for `C[C@H](O)C#Cc1ccc2c(c1)O[C@H](CN(C)C)[C@H](C)CN([C@H](C)CO)S2(=O)=O` was inactive: 1.
The result for `Cn1c(=O)n2n(c1=O)[C@H](C1CC1)C=C1CN3[C@@H]([C@H](CCn4cc(CCC(=O)NO)nn4)OC(=O)[C@@H]3Cc3ccccc3)[C@@H]12` reads inactive: 0.955; that for `C[C@H]1CN([C@@H](C)CO)C(=O)Cc2cc(NC(=O)CCCCCC(=O)Nc3ccccc3N)ccc2O[C@H]1CN(C)CC1CCCCC1`, inactive: 1.02; that for `COc1ccc(NC(=O)Nc2cccc3c2O[C@@H](CN(C)Cc2ccc(C(F)(F)F)cc2)[C@H](C)CN([C@@H](C)CO)C3=O)cc1`, inactive: 0.773.
The result for `CCN(CC)C(=S)SSC(=S)N(CC)CC` reads inactive: 0.412; that for `C[C@@H]1CN([C@@H](C)CO)C(=O)c2cccc(NS(=O)(=O)c3ccc(Cl)cc3)c2O[C@H]1CN(C)Cc1ccc(C(=O)Nc2ccccc2N)cc1`, inactive: 1.03.
On to `COc1ccccc1C#Cc1ccc2c(c1)O[C@@H](CN(C)Cc1ccncc1)[C@H](C)CN([C@@H](C)CO)S2(=O)=O`, for which the relative growth is inactive: 1.02.
Regarding `COc1ccc(COCC23Oc4ccccc4[C@H]([C@H]2CO)n2c(c4c(c(C(C)=O)c2=O)C(=O)N(C)C4=O)N3C)cc1`, the relative growth was inactive: 1.
Consider `CN1C(=O)c2cc(NC(=O)C3CCOCC3)ccc2OC[C@H]2O[C@H](CC(=O)NCc3ccccc3F)CC[C@H]21`, for which the relative growth was inactive: 0.984.
Take `CC(=O)OC1CC2C(C)(C)C(O)CCC2(C)C2CCC3(C)C(c4ccoc4)OC(=O)C4OC43C12C` (stereo not given): the relative growth was inactive: 0.998.
The value for `C[C@@H]1CCCCO[C@@H](CN(C)C(=O)NC2CCCCC2)[C@@H](C)CN([C@H](C)CO)C(=O)c2cc(NS(=O)(=O)c3cccs3)ccc2O1` was inactive: 1.01; that for `Cc1ccc(S(=O)(=O)N(C)C[C@H]2Oc3ccc(NS(C)(=O)=O)cc3CC(=O)N([C@@H](C)CO)C[C@@H]2C)cc1` was inactive: 1.01; that for `C[C@@H]1CCCCO[C@@H](CN(C)C(=O)Nc2ccc(F)cc2)[C@@H](C)CN([C@H](C)CO)C(=O)c2cc(NC(=O)c3ccncc3)ccc2O1` was inactive: 0.993.
For the compound `COc1ccc(O)cn1`, the relative growth is inactive: 1.02.
The result for `C[C@H](CO)N1C[C@H](C)[C@@H](CN(C)C(=O)NC2CCCCC2)OCc2ccccc2-c2c(n(C)c3ccccc23)C1=O` reads inactive: 0.981.
In the case of `C[C@H]1CN([C@@H](C)CO)C(=O)CCCn2nncc2CO[C@H]1CN(C)C(=O)Nc1ccc(C(F)(F)F)cc1`, the relative growth was inactive: 0.951.
The result for `CC(C)CC#Cc1ccc2c(c1)O[C@@H](CN(C)Cc1cncnc1)[C@@H](C)CN([C@H](C)CO)S2(=O)=O` reads inactive: 1.01; that for `COc1ccc(NC(=O)Nc2cccc3c2O[C@H](CN(C)S(C)(=O)=O)[C@@H](C)CN([C@H](C)CO)C3=O)cc1`, inactive: 1.01; that for `Cc1noc(C)c1NC(=O)N(C)C[C@@H]1OCCCC[C@H](C)Oc2ccc(NC(=O)Nc3ccc(F)cc3)cc2C(=O)N([C@@H](C)CO)C[C@H]1C`, inactive: 1.
The value for `C[C@@H]1CN([C@@H](C)CO)C(=O)Cc2cc(NS(=O)(=O)c3cn(C)cn3)ccc2O[C@H]1CN(C)C` was inactive: 0.997.
The result for `CCn1c(=O)c(-c2cc(NC(=O)Nc3ccccc3)c(F)cc2Br)cc2cnc(NC)cc21` reads inactive: 1.01; that for `C[C@@H]1CN([C@@H](C)CO)C(=O)c2cc(Br)cnc2O[C@H]1CN(C)S(=O)(=O)c1ccccc1`, inactive: 0.987; that for `COCCN1CCC(C(=O)NO)(S(=O)(=O)c2ccc(Oc3ccc(OC(F)(F)F)cc3)cc2)CC1`, inactive: 0.705.
Regarding `COc1ccc(NC(=O)N(C)C[C@H]2OCCCC[C@H](C)Oc3ccc(NC(=O)Nc4ccccc4)cc3C(=O)N([C@H](C)CO)C[C@@H]2C)cc1`, the relative growth is inactive: 1.03.
The value for `COc1cc2c(cc1OC)CN(C(=O)[C@H]1[C@@H]3C(=O)O[C@@H](c4ccccc4)[C@@H](c4ccccc4)N3[C@@H](c3ccc(OCCO)cc3)[C@]13C(=O)Nc1ccc(C#CCCO)cc13)CC2` was inactive: 1.06.
`Cc1ccc(CN)cc1Cl`: the relative growth was inactive: 0.98.
The result for `O=c1[nH]c(=O)c2cc(Br)ccc2[nH]1` reads inactive: 1.02; that for `C[C@@H]1CN([C@@H](C)CO)S(=O)(=O)c2ccc(C3=CCCC3)cc2O[C@@H]1CN(C)C(=O)Cc1ccncc1`, inactive: 1.02.
Consider `CNC[C@@H]1Oc2ccc(NS(=O)(=O)c3cn(C)cn3)cc2C(=O)N([C@H](C)CO)C[C@@H]1C`, for which the relative growth was inactive: 0.99.
With `Cc1ccc(S(=O)(=O)N(C)C[C@H]2Oc3ccc(NS(C)(=O)=O)cc3CC(=O)N([C@H](C)CO)C[C@@H]2C)cc1`, the relative growth is inactive: 0.988.
In the case of `O=C(C[C@H]1CC[C@@H]2[C@H](COC[C@@H](O)CN2S(=O)(=O)c2ccccc2Cl)O1)NCc1ccccc1Cl`, the relative growth was inactive: 0.993.
The value for `C=CCOC(=O)[C@H]1[C@@H]2C(=O)O[C@@H](c3ccccc3)[C@@H](c3ccccc3)N2[C@@H](c2ccc(OCCOC(=O)[C@@H]3C[C@@H]4C(=O)N[C@@H](CCCCNC(C)=O)C(=O)N4[C@@H]3c3cccc(OCCO)c3)cc2)[C@]12C(=O)Nc1ccc(I)cc12` was inactive: 1.
Take `C[C@@H]1CN([C@@H](C)CO)C(=O)Cc2cc(NS(=O)(=O)c3ccc(F)cc3)ccc2O[C@@H]1CN(C)S(=O)(=O)c1ccc(F)cc1`: the relative growth was inactive: 0.897.
The result for `CC(=O)NCC(=O)N1CCC2(CC1)CN(c1cccnc1)C(=O)CO2` reads inactive: 0.985; that for `CC1(C)NCCNC1=O`, inactive: 0.97; that for `CS(=O)(=O)c1nnc(N)s1`, inactive: 1.02.
The result for `C[C@H](CO)N1C[C@H](C)[C@@H](CN(C)Cc2cccc3c2OCCCO3)OCc2ccccc2-c2ccccc2C1=O` reads inactive: 0.981.
`C[C@@H]1CN([C@@H](C)CO)C(=O)Cc2cc(NC(=O)Nc3ccccc3)ccc2O[C@H]1CN(C)Cc1ccc(C(F)(F)F)cc1`: the relative growth was inactive: 1.03.
